Measurements: PubChem BioAssay AID686970 (National Center for Advancing Translational Sciences (NCATS), 2013)
The whole screen tested about 360,000 compounds, of which about 6,000 (1.7%) were called active. Inconclusive means that the source gave no clear call. Such entries were picked first, then a sample of the others. Calls come from the whole dose curve; as a rule, active = well fitted cell-killing curve with a large enough effect; inconclusive = small, poorly fitted or top-dose-only effect, or effect the other way; inactive = flat fitted curve, though single readings scatter. Potencies of inconclusive entries are left out as doubtful fits.

assay: qHTS for induction of synthetic lethality in tumor cells producing 2HG: qHTS for the HT-1080-NT fibrosarcoma cell line; conditions: HT-1080-NT fibrosarcoma viability, CellTiter-Glo ATP luminescence, 48 h; activity, negative = less viability: at 46.1 µM (top of the series) unless noted;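 note: NT is the 2HG producing partner of a matched IDH1 knockdown line; nearly all actives have a fitted effect of over 55% in size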;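 for activity, negative = less viability: 0% = DMSO-treated cells and -100% = media-only wells without cells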
How it was run: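 Luminescent CellTiter-Glo readout after 48 hours of compound exposure at 37 degrees C defined viability of HT-1080-NT cells. Activity was normalized to DMSO wells and cell-free media wells; concentration-response curves were fitted and assigned curve classes.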
Potency is the fitted concentration of half-maximal effect; tags give direction and shape of the fitted curve.

Structure (SMILES)	Potency	activity, negative = less viability
CCn1cc(C(=O)OCC(=O)OC2CC(C)CCC2C(C)C)c(=O)c2ccc(C)nc21 (centres undefined)	inconclusive [cytotoxic, single point]	
CS(=O)(=O)Nc1nc2n(n1)C(c1ccccc1)CC(c1ccccc1)N2 (centres undefined)		inactive: 23.8%
c1ccc(CC2=NCCN2)cc1		inconclusive: 12.8%
COc1ccc(-c2nnc(SCC(=O)Nc3ccccc3OC)o2)cc1	inconclusive [cytotoxic, partial curve, poor fit]	
c1ccc(-c2cn3c(n2)-c2ccccc2C3)cc1	inconclusive [cytotoxic, single point]	
COc1ccc(-c2cnc(NCc3cc4c(cc3[N+](=O)[O-])OCO4)n2C)cc1		inactive: -2.04%
C=CCNc1ncnc2c1ncn2[C@H]1CN(Cc2ccc(-c3ccccc3)cc2)C[C@@H](CO)O1	inconclusive [cytotoxic, partial curve]	
O=C(N/N=C/c1ccc(F)cc1)c1cc(-c2ccc3c(c2)OCO3)n[nH]1	inconclusive [cytotoxic, single point]	
Cc1cc(C)n2c(C)nnc2c1	inconclusive [rising, full curve, poor fit]	
Cc1c(C)n(Cc2ccccc2)c2ncnc(NCCN(C)C)c12		inactive: -11.9%
CC(=O)c1ccc(N2CCN(C(=O)C3CCCN(c4ncnc5c4nc4n5CCCCC4)C3)CC2)cc1 (centres undefined)		inactive: -1.03%
Cc1cccc(NC(=S)NNC(=O)c2cc3c(s2)CCC(C)C3)c1C (centres undefined)		inactive: -0.464%
Nc1cc(-c2ccccc2)nn1S(=O)(=O)c1ccc(F)cc1	inconclusive [cytotoxic, single point]	
CC(C)c1ccc(CC(=O)N2CCC2(C)C(=O)NCc2cccc3ccccc23)cc1 (centres undefined)	inconclusive [cytotoxic, single point]	
Cc1cc(Nc2ccccc2)nc(-c2ccccc2O)n1	inconclusive [cytotoxic, single point]	
CCCOc1c(OC)cccc1C1CC(=O)Nc2cc(OC)c(OC)c(OC)c21 (centres undefined)		inactive: -6.93%
O=C(c1ccco1)N1CCN(C(=S)Nc2ccc(F)c(Cl)c2)CC1	inconclusive [cytotoxic, single point]	
CCOC(=O)C1CCN(C(=O)c2ccc(OCC(=O)Nc3cccc(C(F)(F)F)c3)c(OC)c2)CC1		inconclusive: -7.08% [cytotoxic]
CCOC(=O)C1=C(O)/C(=C/c2cc(OC)c(OC)c(OC)c2)SC1=Nc1ccc(OC)cc1		inactive: -8.69%
CCc1nc2ccc(C(=O)NCCOc3ccc(OC)cc3)cn2c1N(C)CCCc1ccccc1	inconclusive [cytotoxic, single point]	
CCNC(=O)C1(C)CCN(C(=O)c2cccc3ccccc23)C1 (centres undefined)		inactive: 23.9%
O=C(N/N=C/c1ccc2c(c1)OCO2)c1cc(-c2ccncc2)nc2ccccc12	inconclusive [cytotoxic, full curve]	
O=c1nc(N2CCCC2)nc(N2CCCC2)[nH]1		inactive: 9.28%

Structure (SMILES)	Potency	activity, negative = less viability
O=C(Nc1ccc(Cl)cc1)C1Cc2c(-c3cccc(F)c3)ccnc2O1 (centres undefined)	inconclusive [cytotoxic, single point]	
O=C(Nc1ccc(S(=O)(=O)Nc2ccccc2)cc1)C1COc2ccccc2O1 (centres undefined)	inconclusive [cytotoxic, single point]	
COC(=O)[C@@]12C[C@@H](CC(=O)N3CCN(C(=O)c4ccco4)CC3)C(=O)N(Cc3cccc4ccccc34)C1=CCC(C)(C)C2	inconclusive [cytotoxic, single point]	
Cc1nn(-c2ccccc2)c(OC(=O)c2cccs2)c1S(=O)(=O)c1ccc([N+](=O)[O-])cc1		inconclusive: -21.2% [cytotoxic]
CC(C)(C(=O)N1CCC1(C)C(=O)NC1Cc2ccccc2C1)c1ccccc1 (centres undefined)		inactive: 7.53%
O=S(=O)(/N=S1\CC=CCN1S(=O)(=O)c1ccccc1)c1ccccc1 (centres undefined)	inconclusive [cytotoxic, single point]	
CC(=O)N1CCc2cc(NC(=O)C3(C)CCN3CCc3ccccc3)ccc21 (centres undefined)	inconclusive [cytotoxic, single point]	
COc1cccc(CC2(CO)CCCN(Cc3[nH]c4ccc(C)cc4c3C)C2)c1 (centres undefined)	inconclusive [cytotoxic, single point]	
Cc1ccc2[nH]c(=O)c3cc(C(=O)NCCC(C)C)sc3c2c1	inconclusive [rising, full curve, poor fit]	
Cc1c([C@@H]2C[C@H]3CN(Cc4cccc(Cl)c4)C(=O)[C@]34CCCN24)cnn1C		inactive: -1.33%
COc1ccccc1-c1noc2c1C(=O)NCC2		inactive: 8.31%
COc1ccc(S(=O)(=O)NCCC(=O)N2CCCC2)cc1N(C)S(C)(=O)=O		inactive: 10.7%
NS(=O)(=O)c1ccc(N2N=C(c3ccccc3)CC2c2cccc(Cl)c2)cc1 (centres undefined)	inconclusive [cytotoxic, single point]	
COc1cc(/C=N/NC2=NCCCCC2)ccc1O	inconclusive [rising, single point]	
CCOc1cc(/C=C2\N=C(C)OC2=O)cc(Br)c1OCCc1ccccc1	inconclusive [cytotoxic, single point]	
O=c1c(Cl)c(NCc2ccc(F)cc2)cnn1C12CC3CC(CC(C3)C1)C2		inactive: -1.83%
CCCc1c(-c2ccc(F)cc2)ncn1CCc1ccccc1OC	inconclusive [cytotoxic, single point]	
COc1ccc(NS(=O)(=O)c2cc(NC(=O)C3CC3)ccc2N2CCOCC2)cc1		inactive: 3.34%
CCOC(=O)c1cccc(NC(=O)c2cnc3ccccc3n2)c1		inactive: 13.7%
CC(=O)c1c(C)[nH]c(C(=O)N2CCN(c3cc(Cl)ccc3C)CC2)c1C	active: 16.4 µM	
Nc1c(C(=O)NCCN2CCOCC2)c2nc3ccccc3nc2n1CCc1ccccc1F	inconclusive [cytotoxic, single point]	
COc1ccc(C#Cc2cccc(-c3nc(C(=O)NCCCN4CCOCC4)cc4c3[C@H](CCO)N(S(=O)C(C)(C)C)C4)c2)cc1OC (some centres undefined)	inconclusive [cytotoxic, single point]	
O=c1cc(C(F)(F)F)[nH]c2ccc(C(F)(F)F)cc12	inconclusive [cytotoxic, single point]	

Structure (SMILES)	Potency	activity, negative = less viability
COc1ccc(-n2ncc3c2CC(C)(C)CC3NC(=O)CN2CCOC2=O)cc1 (centres undefined)	inconclusive [cytotoxic, partial curve, poor fit]	
CN(C)CCCNc1oc(-c2ccccc2Cl)nc1S(=O)(=O)c1ccc(F)cc1	inconclusive [cytotoxic, partial curve, poor fit]	
CCn1c(NCc2cc(Cl)ccc2O)nc2ccccc21	inconclusive [cytotoxic, single point]	
O=C(CN1C(=O)S/C(=C\c2ccc(Cl)cc2)C1=O)NCCCn1ccnc1		inactive: -17.7%
CCOc1ccc(S(=O)(=O)N2CCN=C2c2ccccc2)cc1	inconclusive [cytotoxic, single point]	
CSc1ccccc1NC(=O)Nc1ccc(Cl)cc1	active: 14.1 µM	
CN(C)c1ccc(/C=C/c2nc3ccccc3s2)cc1	inconclusive [cytotoxic, single point]	
CCc1nc2ccc(C(=O)Nc3cccc(NS(C)(=O)=O)c3)cn2c1N(CCC(C)C)CCN(C)C	inconclusive [cytotoxic, partial curve]	
O=C(COC(=O)/C=C/c1ccc(OC(F)F)cc1)NC1CCCCCCC1		inactive: 4.13%
COc1ccc(NC(=O)Cc2ccc(Cl)cc2)cc1NC(=O)c1ccco1	inconclusive [cytotoxic, partial curve]	
COc1ccc(C)cc1NC(=O)c1nnn(Cc2cccc(F)c2)c1N	inconclusive [cytotoxic, partial curve]	
COc1cc(/C=N/NC(=O)c2ccc(=O)[nH]n2)ccc1O	inconclusive [rising, partial curve]	
COC(=O)c1c(C)[nH]c(C=Nc2ccc(OC)cc2)c1C	inconclusive [cytotoxic, single point]	
COc1ccc(C(C(=O)NC(C)(C)C)n2c(-c3ccc(=O)[nH]c3)nc3ccccc32)cc1 (centres undefined)	active: 13 µM	
CCCC(=O)N1CCCC1(C)C(=O)Nc1ccc(C)c(C)c1 (centres undefined)	inconclusive [rising, single point]	
Cc1ccc(/C=N/NC(=O)CNC(=O)c2cccs2)cc1		inactive: 12%
O=C(NCc1ccco1)/C(=C\c1cccs1)NC(=O)c1ccsc1	inconclusive [rising, partial curve]	
N#CCSc1nc2c(sc(=S)n2Cc2ccco2)c(=O)n1-c1ccc(F)cc1	inconclusive [cytotoxic, single point]	
Cc1ccc(S(=O)(=O)Cc2sc3ccccc3[n+]2C)cc1		inactive: 10.4%
CCc1cccc(NC(=O)Cn2cc(C=O)c3ccccc32)c1	inconclusive [cytotoxic, single point]	
Cc1ccccc1NS(=O)(=O)c1cc(C(=O)Nc2ccccc2-c2ccccc2)ccc1Cl	inconclusive [cytotoxic, partial curve]	
COC(=O)[C@@]1(Sc2ccc(C)cc2)CC(=O)N(c2ccccc2)[C@@H]1c1ccccc1	inconclusive [cytotoxic, single point]	
O=C(c1ccccc1-c1ccccc1)N1CCN(c2ccccn2)CC1	active: 5.8 µM	
